Measurements published in the supplement of paper PMC3334620.
Whole data set: some 33,000 sequences, median “E-score (-0.5 to 0.5)” near -0.017, cut for the highest 2% near 0.3. The list shows a part of the results.

molecular target: T1, Sut1 (UniProt P53032); assay: PBM E-score (8-mer binding enrichment) (E-score (-0.5 to 0.5)); higher = stronger / more preferred TF binding; most listed sequences are background and not binding sites; conditions: protein concentration: 200 nM; construct: GST-full length
T1 sequence: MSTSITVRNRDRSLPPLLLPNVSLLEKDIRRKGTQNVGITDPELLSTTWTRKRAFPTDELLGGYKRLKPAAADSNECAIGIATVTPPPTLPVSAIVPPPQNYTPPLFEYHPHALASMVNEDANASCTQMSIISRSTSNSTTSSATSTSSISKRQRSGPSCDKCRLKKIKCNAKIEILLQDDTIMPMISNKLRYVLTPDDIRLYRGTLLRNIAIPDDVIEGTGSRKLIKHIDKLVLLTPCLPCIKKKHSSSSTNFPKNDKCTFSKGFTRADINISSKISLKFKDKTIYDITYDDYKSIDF
Procedure, shortened: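 For each ungapped eight-base word taken together with its reverse complement, the Universal PBM Analysis Suite assigned an E-score. Binding data came from GST-tagged yeast transcription factors, applied at about 100-200 nM, on universal all-10-mer Agilent arrays made double-stranded by primer extension. Fluorescent anti-GST marked bound protein, and scans were normalised with masliner.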

Sequence	PBM E-score
CAAAGGAA	0.0795
GAGCCGTA	0.113
GCAATTCA	-0.0115
CGCACGTC	-0.00581
CACCAATA	0.112
AGACTAAT	0.0123
ACCAGATA	0.0404
ACCTGCTC	-0.204
AGCTGGCG	-0.301
CCCCACTC	-0.0828
TAGAGTGA	0.118
CATGTAAC	0.127
ACGCAATC	0.0769
ACGTTCCA	-0.121
AACTAGGT	0.211
CCTGGACG	-0.323
AGCAATTA	0.183
AATGACTG	-0.0497
GGTGAACA	-0.254
AACTGAGG	-0.0963
ATTCCGAC	0.219
AGGTACAA	-0.0388
CGAAGCCA	0.035
AACCACAA	0.175
GCGCCTTA	-0.0601

Sequence	PBM E-score
AAATCTCT	0.123
GTAACTAC	0.159
CGACAGAC	-0.163
CGGAGGCA	0.0908
AACCTGTA	-0.0478
AGTGGACG	0.0924
ACTATTTG	0.252
GACCCCGC	-0.0107
CCCAGGAA	-0.099
CCACCCTC	-0.0597
ATTCGAAT	0.154
GAAGACGA	-0.00534
ACGTTGCA	-0.0425
ATGCCGAA	0.125
CTTGGCTA	-0.0531
AGCTGGAA	-0.22
CTTGACTA	-0.0929
CCGAAACA	0.154
ACACGTCA	-0.15
ATTCCTCA	0.0522
AGTATCAT	0.183
AGTCTTTA	0.0267
ATAGATAG	0.187
ACGCACAT	-0.0517
TACGGGCA	-0.0806

Sequence	PBM E-score
CCAAGACA	0.0382
CTCGCGAC	-0.252
AGACGGCG	-0.0797
CTCATGAC	-0.0703
AACCAGTC	0.173
AGGCGTGG	-0.404
CCAAGCAG	-0.0829
AACTAGCG	-0.0241
AATCTGTG	-0.0439
GGATCTAA	0.0238
CGCTTACG	-0.171
ATTACGTG	-0.0252
ACACTCCA	0.0327
GAGGGATA	-0.264
CTAACCCC	-0.102
GGATCGTA	0.0665
GTCGGCTA	-0.0144
CTATCAGC	-0.0428
CCATTGAA	0.167
AATAGTAG	0.173
CGCAATTA	0.142
GTTTGATA	0.241
GTCATACA	0.226
AAAGTACG	0.0791
ACAAAGCT	-0.027

Sequence	PBM E-score
AGTGCATG	-0.0963
ATATCGCC	0.0593
GCCTTCAA	-0.0191
ACTTTCAC	0.231
CAACCGTC	-0.283
AACACACT	0.0242
CCTAGCGC	-0.127
ATTATACC	0.149
CTCTAGTC	-0.147
TGACCCAA	-0.152
ATATTGCA	0.0739
TAGCCAAA	0.137
AAACTGGC	-0.0885
ATCAGAAC	-0.0461
CCTTGCGA	-0.13
AGGGGGTA	-0.323
AGCTGGCA	-0.241
AGTCGGAG	0.316
GGCACGTA	-0.146
ATACGGGG	-0.0377
CTTTCGAC	0.0381
GCAACGGC	-0.0987
GCCACTAC	-0.00549
AGCCCTGG	-0.299
GGCCCTCA	-0.279

Sequence	PBM E-score
ACGCATAA	0.0185
ACACATTA	0.00791
CACGCACC	-0.17
ACTAGGCT	-0.0538
ACCAGTAC	-0.139
CCTTCTAG	-0.0796
CTGTCTGC	-0.331
AGGCTAGA	-0.0922
CGACCCCA	-0.275
CTCAACCA	-0.0246
ACGGTTGG	-0.112
CTCATCAA	0.179
ATGATCTA	0.0838
CGATAGCA	-0.245
ATTCGCTA	0.0525
AAACCGTA	0.083
AATCATCC	0.0734
CATACGGC	-0.156
GATATAGA	0.136
AGGGCGCC	-0.353
CAGGCTTA	0.0613
TAAACCTA	0.0849
TCCGTAGA	0.361
ACGGTAGG	-0.172
AGGTCACT	-0.208

Sequence	PBM E-score
AGCGAACC	0.0689
CTGGGTAC	-0.2
AGTGGAAC	-0.107
CCCAGCGG	-0.215
ATTGGGCC	-0.00173
CGGCATTA	0.0544
GCCTTCCC	-0.0894
TCGTACGA	-0.0725
GCATGGCC	-0.178
AACCACGG	0.0519
ATATAATC	0.156
CTGGGGGA	-0.273
CAATGGGG	-0.163
CGAACACC	-0.214
CATAGTTC	0.0676
AGGAGGAC	-0.242
CCGCTCTA	0.026
AACAAAAT	0.211
CAGGCTCC	0.119
AATGAACG	0.0695
AATACGAG	-0.0322
AACCATCC	0.0583
AACCTACC	-0.0315
ACTATCGC	-0.0369
CCCGGCCC	-0.188

Sequence	PBM E-score
TATAAAGA	0.224
ACTAAGTC	0.0911
GCCAATAA	0.095
AAAGCTGT	0.0813
CTTCTTAC	-0.035
AGCTAGGG	-0.201
ACTCTCGA	-0.0375
CAGCCCAC	-0.186
GCGGGGCC	-0.19
CGTATTAA	0.0987
ACCCTATG	-0.159
ACAGTCCG	0.312
GCGGCGCC	0.00918
GCTCGAAA	0.0433
ATTGTTCG	0.271
GCACGCCA	-0.271
CAACCGAG	0.0199
TCTCTAAA	0.107
CCCACCGC	-0.147
CAGCGAAG	-0.111
GACCTCAA	-0.062
ATCTCCTG	0.016
